{"source": "the RNAGym collection of RNA variant scans (doi:10.7554/elife.90254)", "parents": {"B1": {"name": "LINE1-mini (parent)", "chain": "GGCAGAGCUCAACACAGCGUGGCAAAGUGGCUGUGGCUAGACUGCC"}}, "note": "The source gives no read counts; variants with many changes may rest on few reads."}
{"variants_of": "B1", "test": "self-cleavage, relative activity (ratio to wild type); higher = more cleavage; in vitro, sequencing; the parent is a self-cleaving ribozyme"}
{"variant": "G1U A14C G30A", "self-cleavage": 0.21}
{"variant": "C3U C10A G33U", "self-cleavage": 0.05}
{"variant": "A11G A24U A41U U43G", "self-cleavage": 0.03}
{"variant": "U9C U28A A41U", "self-cleavage": 0.06}
{"variant": "C10U C13A G44U", "self-cleavage": 0.04}
{"variant": "C13A C18U G29U", "self-cleavage": 0.16}
{"variant": "G2C U9C A25U A41U", "self-cleavage": 0.1}
{"variant": "G7A C18A C31U G36A", "self-cleavage": 0.07}
{"variant": "A6C C18U A24U C31G C46G", "self-cleavage": 0.07}
{"variant": "G27A G29C U34C G40C", "self-cleavage": 0.03}
{"variant": "A4C G5C C15A C18U C23G A24C", "self-cleavage": 0.01}
{"variant": "G7A C13G G17U G19U G22U", "self-cleavage": 0.27}
{"variant": "G5U G7A C13A C18G C46G", "self-cleavage": 0.02}
{"variant": "G1U C13U G21U", "self-cleavage": 0.07}
{"variant": "A12G C18G G40C", "self-cleavage": 0.09}
{"variant": "C23G A25U G30C", "self-cleavage": 0.4}
{"variant": "G1A G33A G36U", "self-cleavage": 0.09}
{"variant": "G2A G29A G40C", "self-cleavage": 0.14}
{"variant": "C8G C10A G17C G21U C45G C46A", "self-cleavage": 0.01}
{"variant": "A4U A12G U28G C46A", "self-cleavage": 0.03}
{"variant": "G1U C37U G40A", "self-cleavage": 0.01}
{"variant": "C13A C15G C45A", "self-cleavage": 0.03}
{"variant": "C8A C10G C18U G36C C37A G40U", "self-cleavage": 0.01}
{"variant": "G1C C10A U20G G40U", "self-cleavage": 0.02}
{"variant": "U9C A25U G35U", "self-cleavage": 0.05}
{"variant": "A6U C8U C13U G30C G40A", "self-cleavage": 0.28}
{"variant": "A4G U20C G30A", "self-cleavage": 0.17}
{"variant": "G1U U9G G29U C37A A41C G44A", "self-cleavage": 0}
{"variant": "A16C C18U G30U", "self-cleavage": 0.08}
{"variant": "G7C C13A U20C", "self-cleavage": 0.01}
{"variant": "A6C C23U G35A", "self-cleavage": 0.14}
{"variant": "G5A A6G U9G A16U G19U C23A G33A C46U", "self-cleavage": 0.03}
{"variant": "G5A A6C U20G", "self-cleavage": 0.08}
{"variant": "C10U A11G C23U G36A", "self-cleavage": 0.01}
{"variant": "G30C U32G A39C", "self-cleavage": 0.08}
{"variant": "A6C A16C U20C C23U C37U C45A", "self-cleavage": 0.05}
{"variant": "C8U C23U C37A", "self-cleavage": 0.13}
{"variant": "C8U C23U A41C", "self-cleavage": 0.06}
{"variant": "G7C C8G U9A G44U", "self-cleavage": 0.14}
{"variant": "G17A G19C G33C", "self-cleavage": 0.03}
{"variant": "C3A A4U C18G G29A", "self-cleavage": 0.14}
{"variant": "C3A G35C G40U C42G", "self-cleavage": 0.22}
{"variant": "G1C U9G C23A C31U", "self-cleavage": 0}
{"variant": "C8A A16G C37A A39G", "self-cleavage": 0.18}
{"variant": "A4U A6U C23A U32G", "self-cleavage": 0.11}
{"variant": "C3G C15U A26U", "self-cleavage": 0.33}
{"variant": "C10G A12G G27A U32C G44C", "self-cleavage": 0.01}
{"variant": "C3A A4U G5U A11C A41G", "self-cleavage": 0.01}
{"variant": "C13G U34C A39C", "self-cleavage": 0.01}
{"variant": "G1U C13G G19U", "self-cleavage": 0.04}
{"variant": "U20G C31U U43A", "self-cleavage": 0.02}
{"variant": "A16U C18G G33C C45A", "self-cleavage": 0.01}
{"variant": "G5U C23G G35U C37A", "self-cleavage": 0.05}
{"variant": "G2A C10A C23U U32G", "self-cleavage": 0.02}
{"variant": "G1C A12U G40C", "self-cleavage": 0.01}
{"variant": "C8G A24C U28G", "self-cleavage": 0.06}
{"variant": "C10A C15G G21A A24U G44A", "self-cleavage": 0.03}
{"variant": "G5A U20C U32A U38A", "self-cleavage": 0.03}
{"variant": "A26G G33C G35A C42U", "self-cleavage": 0}
{"variant": "C8G C10U A11C", "self-cleavage": 0.05}
{"variant": "C8A G30A C31U", "self-cleavage": 0.18}
{"variant": "C15U G19C C23U U34G A41U", "self-cleavage": 0.02}
{"variant": "A12C G17C A41C", "self-cleavage": 0}
{"variant": "G5A A26G U43G", "self-cleavage": 0.03}
{"variant": "A4G G5C C46G", "self-cleavage": 0.04}
{"variant": "C10G C23U G33C", "self-cleavage": 0.01}
{"variant": "C3U G5C G17C C18U G30U", "self-cleavage": 0.04}
{"variant": "G1C G19U G40A", "self-cleavage": 0.06}
{"variant": "A6U C10G C37U", "self-cleavage": 0}
{"variant": "A26U U38A A39U", "self-cleavage": 0.7}
{"variant": "G2A U20C U28G G35C G44C", "self-cleavage": 0.23}
{"variant": "G7C G30U C42U", "self-cleavage": 0.05}
{"variant": "G1A A11U C15U U38A U43G", "self-cleavage": 0}
{"variant": "G17U G29A C37U A41G C45A", "self-cleavage": 0}
{"variant": "G2C A4G C31U U38G", "self-cleavage": 0.07}
{"variant": "A16C G21A U34C", "self-cleavage": 0.03}
{"variant": "U9A C18U G19U C37U", "self-cleavage": 0.11}
{"variant": "G2A G22U C46U", "self-cleavage": 0.37}
{"variant": "C8U U9G G17C G27A U32C", "self-cleavage": 0.04}
{"variant": "G5C C23U A26G", "self-cleavage": 0.03}
{"variant": "G1C U9G C10A G19C", "self-cleavage": 0}
{"variant": "G19A C23U A41U", "self-cleavage": 0.82}
{"variant": "U20A G21A A39C", "self-cleavage": 0.01}
{"variant": "C8U C10U C15G A24U A25C", "self-cleavage": 0.03}
{"variant": "C8G A11U G22U U32G C37A", "self-cleavage": 0.01}
{"variant": "G1A C3G C10A A24C", "self-cleavage": 0.14}
{"variant": "A4G C8U G29U G35A C37U", "self-cleavage": 0.01}
{"variant": "G7U A11U A12U", "self-cleavage": 0.01}
{"variant": "A16G G17A G22U", "self-cleavage": 0.03}
{"variant": "C23U G33A C37G A41C", "self-cleavage": 0.44}
{"variant": "U9G G33C A41U G44A C46U", "self-cleavage": 0.04}
{"variant": "A12G C13U G19C G21U", "self-cleavage": 0.02}
{"variant": "U9G C13A A16U G17C", "self-cleavage": 0.02}
{"variant": "G19U A25G G40C", "self-cleavage": 0.03}
{"variant": "G2C A12G C15A G19A C45A", "self-cleavage": 0.01}
{"variant": "G5A C13A C18A G40U", "self-cleavage": 0.02}
{"variant": "C3A A4U G30C A39G C45A", "self-cleavage": 0.12}
{"variant": "G5U A11U G17C", "self-cleavage": 0.01}
{"variant": "C10A G17U A39U", "self-cleavage": 0.27}
{"variant": "C10U G22U C23A", "self-cleavage": 0.11}
{"variant": "G5U A12C C18G G22C A25C", "self-cleavage": 0.01}
{"variant": "C10A U20C G22U", "self-cleavage": 0.01}
{"variant": "A6C C10A U28A C42U", "self-cleavage": 0}
{"variant": "A16U A41G C45U", "self-cleavage": 0.09}
{"variant": "C8U C31A G33A", "self-cleavage": 0.12}
{"variant": "G5C C8U G27A", "self-cleavage": 0.04}
{"variant": "G5A A11G G19U U20A U38A", "self-cleavage": 0.02}
{"variant": "C15U G29C G44C", "self-cleavage": 0.93}
{"variant": "C3G A41G C42G", "self-cleavage": 0.09}
{"variant": "G5U G22A U28A C42U", "self-cleavage": 0.03}
{"variant": "C8A G22A U32C A41C C45A", "self-cleavage": 0.02}
{"variant": "C13U A14G G17C C18G G44A", "self-cleavage": 0.01}
{"variant": "U9C C10A G17C U20G A39G", "self-cleavage": 0.01}
{"variant": "G2C C10A A16C C18A G22U C23G A39G G40A", "self-cleavage": 0}
{"variant": "A39U C42A U43C G44U", "self-cleavage": 0.05}
{"variant": "C8G U9G U20C A24C", "self-cleavage": 0.01}
{"variant": "C10A C15A C46U", "self-cleavage": 0.02}
{"variant": "C18G C31G U34C", "self-cleavage": 0.02}
{"variant": "G7A G29C G40C", "self-cleavage": 0.08}
{"variant": "G2U G7C A11U A16C", "self-cleavage": 0.05}
{"variant": "C13G C23A A24U U34G", "self-cleavage": 0.02}
{"variant": "U9A C10A A11C", "self-cleavage": 0.02}
{"variant": "U9C G27A G33U G40U", "self-cleavage": 0.02}
{"variant": "G5U A16U G35A", "self-cleavage": 0.05}
{"variant": "G1A A4C G21A U28C G44A", "self-cleavage": 0.14}
{"variant": "C3A C10A G22A U38A", "self-cleavage": 0.03}
{"variant": "C13G G21U A26G G30U U43A", "self-cleavage": 0.04}
{"variant": "G1U A4U U43A", "self-cleavage": 0.25}
{"variant": "G22A G36C G44U", "self-cleavage": 0.06}
{"variant": "C13U G19U G40C C45A", "self-cleavage": 0.01}
{"variant": "C15A A16G C18U G40A", "self-cleavage": 0.02}
{"variant": "G7A C8A U43A", "self-cleavage": 0.12}
{"variant": "G5A C15U U20G", "self-cleavage": 0.1}
{"variant": "A12U C15G C23A U28G U32G C37U U38A", "self-cleavage": 0.01}
{"variant": "A4G C18G G36A G44A", "self-cleavage": 0.05}
{"variant": "G7C C23G A41U", "self-cleavage": 0.1}
{"variant": "C3A C8U A14G U28A G30U", "self-cleavage": 0.01}
{"variant": "C13U G27U A41G", "self-cleavage": 0.04}
{"variant": "C10U A11G G27A A41U", "self-cleavage": 0.01}
{"variant": "C3G G7C G19U A24G G30U G40U C45G", "self-cleavage": 0}
{"variant": "C13U C18U G21U", "self-cleavage": 0.08}
{"variant": "C10G A14U C15A G27U C42G", "self-cleavage": 0.02}
{"variant": "C8A A12C U20A U43C", "self-cleavage": 0.01}
{"variant": "C3G C15A G19U C46A", "self-cleavage": 0.03}
{"variant": "C8A C13A G22U", "self-cleavage": 0.25}
{"variant": "C8A C15U G19C A25U", "self-cleavage": 0.18}
{"variant": "G7U A12G G19U G21A G27U U34C G44U", "self-cleavage": 0.03}
{"variant": "G1A C8G A16G G22A G33U U38G U43A", "self-cleavage": 0.05}
{"variant": "A25U G33A G35C", "self-cleavage": 0.01}
{"variant": "G5A C31U G44A", "self-cleavage": 0.04}
{"variant": "C15A G19A G27U G40U", "self-cleavage": 0.09}
{"variant": "C13A U28G G30U", "self-cleavage": 0.15}
{"variant": "C3A C8G A12G A16U G19C G27C", "self-cleavage": 0}
{"variant": "C10G G29A U32C C42U", "self-cleavage": 0.01}
{"variant": "A39U G40A G44C", "self-cleavage": 0.04}
{"variant": "G1U A14C G22A A25U A41U", "self-cleavage": 0.01}
{"variant": "C13A C18U G30A G33U U43A", "self-cleavage": 0.04}
{"variant": "A12G C13G G22C A25U A39G", "self-cleavage": 0.03}
{"variant": "C3G A12U C18A C37G G40U", "self-cleavage": 0.05}
{"variant": "A12U A14U G17A", "self-cleavage": 0.05}
{"variant": "C10G A12U C13G U20A A24C", "self-cleavage": 0.01}
{"variant": "A4U C15U A16U G19C", "self-cleavage": 0.14}
{"variant": "G2A A6C C10A A24C", "self-cleavage": 0.04}
{"variant": "G1U A14U A16U", "self-cleavage": 0.04}
{"variant": "A12C G19A A25G", "self-cleavage": 0.01}
{"variant": "U9A C13G U28C", "self-cleavage": 0.12}
{"variant": "G22U A25U G29C", "self-cleavage": 2}
